Test results as given in PubChem BioAssay AID485294 (National Center for Advancing Translational Sciences (NCATS), 2010).
Among all 370,000 compounds or so, about 150 (0.041%) were called active. Inconclusive results, whose numbers are uncertain, are shown with a selection of clear calls. The call rests on the fitted dose curve; in most records, active means well fitted inhibition curve with a large enough effect; inconclusive means small, poorly fitted or top-dose-only effect; inactive means flat fitted curve, though single readings scatter. Potencies of inconclusive entries are left out as doubtful fits.

Biological target: Beta-lactamase (Escherichia coli (strain K12)) (UniProt P00811)
Test: qHTS Inhibitors of AmpC Beta-Lactamase (assay with detergent); further: nearly all actives have a fitted effect of over 25% in size
Conditions: AmpC hydrolysis of nitrocefin, absorbance 480 nm, 0.01% Triton; series mostly up to 114 µM
In short: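 AmpC (5.3 nM in the dispensed reagent) in 20 mM phosphate pH 7.0 with 0.01% (detergent screen) or 0.0001% Triton X-100 was preincubated with compounds for 15 min at room temperature. Nitrocefin was then added from an 800 uM solution, and hydrolysis was followed at 480 nm.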
Potency means the concentration at half of the fitted maximal effect; tags describe the fitted curve by direction and shape.

Sequence of UniProt P00811 (P00811 whole entry, looked up): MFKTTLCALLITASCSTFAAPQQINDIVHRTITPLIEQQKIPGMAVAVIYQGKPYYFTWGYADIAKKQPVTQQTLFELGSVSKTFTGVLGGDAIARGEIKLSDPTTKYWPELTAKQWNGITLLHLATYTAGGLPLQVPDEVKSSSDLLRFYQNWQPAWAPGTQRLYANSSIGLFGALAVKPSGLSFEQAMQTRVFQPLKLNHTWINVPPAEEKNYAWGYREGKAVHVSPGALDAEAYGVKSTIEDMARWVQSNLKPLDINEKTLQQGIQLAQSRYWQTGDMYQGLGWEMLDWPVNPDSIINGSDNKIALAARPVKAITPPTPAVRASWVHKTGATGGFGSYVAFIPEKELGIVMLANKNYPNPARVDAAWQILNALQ

| Compound | Potency |
| --- | --- |
| CCOC(=O)N1CCC(NC(=S)Nc2ccc3nc(N4CCN(CC)CC4)cc(C)c3c2)CC1 | inactive |
| CC(=O)OC(C(=O)N1CCN(c2ccc(F)cc2)CC1)c1ccccc1 (configuration not stated) | inactive |
| O=C(O)C1(c2ccccc2)CCN(S(=O)(=O)c2ccc(Br)cc2)CC1 | inconclusive [inhibitor, full curve, poor fit] |
| NC(=O)c1cccnc1Sc1ccc(Cl)cc1 | inconclusive [inhibitor, full curve, poor fit] |
| CCOc1cc(CN2CCN(c3cccc(C(F)(F)F)c3)CC2)ccc1OC | inconclusive [inhibitor, partial curve, poor fit] |
| CC(C)(C)C1CCc2c(C(=O)N/N=C/c3cccs3)csc2C1 (configuration not stated) | inconclusive [inhibitor, full curve] |
| CN(C)C(CNC(=O)CCc1nc2sc3c(c2c(=O)[nH]1)CCCC3)c1ccccc1 (configuration not stated) | inconclusive [inhibitor, partial curve, poor fit] |
| Cc1ccc(S(=O)(=O)NCc2ccccc2)cc1C(=O)N(C)CC(=O)Nc1c(Cl)cccc1Cl | inconclusive [inhibitor, full curve] |
| CCOCCCNC(=O)C(NC(=O)CNC(C)=O)c1ccc(C)cc1 (configuration not stated) | inactive |
| CN(C)c1ccc(-c2noc(-c3ccccc3O)n2)cc1 | inconclusive [inhibitor, single point] |
| CC(=O)c1c(C)[nH]c(C(=O)Nc2ccc(C)cn2)c1C | inconclusive [inhibitor, full curve, poor fit] |
| O=C(Nn1c(-c2ccccc2)nc2ccccc2c1=O)c1ccco1 | inactive |
| COCc1ccc(CN2CCC(n3nccc3NC(=O)CCOc3ccccc3)CC2)o1 | inconclusive [inhibitor, full curve] |
| COc1cccc(NC(=O)C2CCN(S(=O)(=O)c3ccc4[nH]c(=O)oc4c3)CC2)c1 | inconclusive [inhibitor, full curve, poor fit] |
| CCCCCCC(=O)Cc1cc(OC)c(OC)cc1C=C(C(=O)OCC)C(=O)OCC | inconclusive [inhibitor, full curve, poor fit] |
| CC(C)(C)C(C(Oc1ccc(Cl)cc1)n1cncn1)n1nnnc1C(c1cccc(Cl)c1)N1CCCCC1 (configuration not stated) | inconclusive [inhibitor, full curve, poor fit] |
| COc1ccccc1N1CCN(CC(O)c2ccccc2)CC1 (configuration not stated) | inactive |
| CCOC(=O)N1CCc2c(sc(NC(=O)c3ccc(Cl)s3)c2C(N)=O)C1 | inconclusive [inhibitor, partial curve, poor fit] |
| CC(=O)Nc1ccc(NCN2C(=O)[C@@H]3[C@H]4CC[C@H](C4)[C@@H]3C2=O)cc1 | inconclusive [inhibitor, partial curve, poor fit] |
| COc1cccc(Oc2coc3cc(OC(=O)N4CCOCC4)ccc3c2=O)c1 | inconclusive [inhibitor, single point] |
| CCc1c(-c2ccccc2)nc2nc(C)c(C)nn12 | inconclusive [inhibitor, full curve, poor fit] |

| Compound | Potency |
| --- | --- |
| COC(=O)CCCNC(=O)c1ccc(OC2CCN(CCc3ccccc3)CC2)cc1 | inactive |
| Cc1ccc(CNC(=O)C2CCC(=O)N(CC3CCCCC3)C2)o1 (configuration not stated) | inconclusive [inhibitor, full curve, poor fit] |
| CC(=O)Oc1ccc(C(=O)Nc2cc(C)on2)cc1 | inactive |
| O=P(c1ccccc1)(c1ccccc1)C(O)c1ccncc1 (configuration not stated) | inconclusive [inhibitor, full curve, poor fit] |
| COc1cccc(OC)c1OCCCc1c(C)n[nH]c1C | inconclusive [inhibitor, full curve] |
| CC(=O)Nc1ccccc1-c1nc2ccccc2n(C(C)C(=O)Nc2cccc(C)c2C)c1=O (configuration not stated) | inactive |
| Cc1ccc(S(=O)(=O)n2nc(C)c(S(=O)(=O)N3CCCCC3)c2C)cc1 | inconclusive [inhibitor, full curve, poor fit] |
| Oc1ccc(CN2CCN(c3ccccc3)CC2)c2cccnc12 | inconclusive [inhibitor, full curve, poor fit] |
| O=C(NCc1ccc(F)cc1)Nc1cccc([N+](=O)[O-])c1 | inactive |
| CCOc1cc(N2CCOCC2)c(OCC)cc1NC(=O)COC(=O)/C=C/c1ccc(OC(F)F)cc1 | inconclusive [inhibitor, full curve, poor fit] |
| NC(=O)NC(=O)COC(=O)c1ccc(OC(F)F)cc1 | inconclusive [inhibitor, full curve] |
| COc1ccc(-c2cc3c(=O)n(CC(=O)Nc4cc(C)ccc4C)ccn3n2)cc1 | inactive |
| Cc1cccc2cc(CN(CC3CCCO3)S(=O)(=O)c3ccccc3)c3nnnn3c12 (configuration not stated) | inconclusive [inhibitor, partial curve, poor fit] |
| CC1(C)N=C(N)NC(Nc2cccc(Br)c2)=N1 | inactive |
| Cc1ccc(NC(=O)CCc2nnc3ccc(NCc4ccco4)nn23)cc1F | inconclusive [inhibitor, single point] |
| Cc1cc2nc(-c3cccc(NC(=O)c4ccc(Br)o4)c3)oc2cc1C | inactive |
| CC(=O)NCC(=O)NC1(C(=O)NC2CCCC2)CCCCC1 | inconclusive [inhibitor, full curve] |
| N#CC(C(=O)c1ccc(S(=O)(=O)N2CCCCCC2)cc1)c1nc2ccccc2[nH]1 (configuration not stated) | inconclusive [inhibitor, partial curve, poor fit] |
| CC(=O)c1sc(NC(=O)COc2ccc(C(C)C)c(C)c2)nc1C | inconclusive [inhibitor, full curve, poor fit] |
| COc1ccc(N(CC(=O)Nc2cc(C)ccc2C)S(=O)(=O)c2c(C)nn(C)c2C)cc1 | inconclusive [inhibitor, full curve, poor fit] |
| CC(C)(C)c1cc(NC(=O)CSc2nncs2)n(-c2ccccc2)n1 | inconclusive [inhibitor, partial curve, poor fit] |
